To fix the notation:
T1: RBFOX1 RRM (Homo sapiens, UniProt Q9NWB1 109-208)
T1 sequence: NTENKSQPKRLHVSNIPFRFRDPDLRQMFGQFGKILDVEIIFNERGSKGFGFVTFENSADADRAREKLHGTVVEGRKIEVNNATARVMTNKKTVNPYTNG

B1: AAGUUUG (DNA:RNA)
RNA: GGGAGACCGGAAUUCAGAUUGUCCAAGUUUGUUAAAUCCCGUCGUAGCCACCA
DNA 1: CAATCTGAATTCCGGTCTCCC
DNA 2: TGGTGGCTACGACGGGATT
B2: AAGUCCA (DNA:RNA)
RNA: B1 RNA with U29C, U30C, G31A
DNA 1: CAATCTGAATTCCGGTCTCCC
DNA 2: TGGTGGCTACGACGGGATT
B3: AAUUCUU (DNA:RNA)
RNA: B1 RNA with G27U, U29C, G31U
DNA 1: CAATCTGAATTCCGGTCTCCC
DNA 2: TGGTGGCTACGACGGGATT
B4: AUAGAGC (DNA:RNA)
RNA: B1 RNA with A26U, G27A, U28G, U29A, U30G, G31C
DNA 1: CAATCTGAATTCCGGTCTCCC
DNA 2: TGGTGGCTACGACGGGATT
B5: GUACACG (DNA:RNA)
RNA: B1 RNA with A25G, A26U, G27A, U28C, U29A, U30C
DNA 1: CAATCTGAATTCCGGTCTCCC
DNA 2: TGGTGGCTACGACGGGATT
B6: UUGAUGA (DNA:RNA)
RNA: B1 RNA with A25U, A26U, U28A, U30G, G31A
DNA 1: CAATCTGAATTCCGGTCTCCC
DNA 2: TGGTGGCTACGACGGGATT
B7: AACACCU (DNA:RNA)
RNA: B1 RNA with G27C, U28A, U29C, U30C, G31U
DNA 1: CAATCTGAATTCCGGTCTCCC
DNA 2: TGGTGGCTACGACGGGATT
B8: AGUAUAA (DNA:RNA)
RNA: B1 RNA with A26G, G27U, U28A, U30A, G31A
DNA 1: CAATCTGAATTCCGGTCTCCC
DNA 2: TGGTGGCTACGACGGGATT
B9: UUGUCUU (DNA:RNA)
RNA: B1 RNA with A25U, A26U, U29C, G31U
DNA 1: CAATCTGAATTCCGGTCTCCC
DNA 2: TGGTGGCTACGACGGGATT
B10: CACGAGG (DNA:RNA)
RNA: B1 RNA with A25C, G27C, U28G, U29A, U30G
DNA 1: CAATCTGAATTCCGGTCTCCC
DNA 2: TGGTGGCTACGACGGGATT
B11: AUACUUA (DNA:RNA)
RNA: B1 RNA with A26U, G27A, U28C, G31A
DNA 1: CAATCTGAATTCCGGTCTCCC
DNA 2: TGGTGGCTACGACGGGATT
B12: CGUCCAU (DNA:RNA)
RNA: GGGAGACCGGAAUUCAGAUUGUCCCGUCCAUUUAAAUCCCGUCGUAGCCACCA
DNA 1: CAATCTGAATTCCGGTCTCCC
DNA 2: TGGTGGCTACGACGGGATT
B13: AUGAGAG (DNA:RNA)
RNA: B1 RNA with A26U, U28A, U29G, U30A
DNA 1: CAATCTGAATTCCGGTCTCCC
DNA 2: TGGTGGCTACGACGGGATT
B14: AAUGAUU (DNA:RNA)
RNA: B1 RNA with G27U, U28G, U29A, G31U
DNA 1: CAATCTGAATTCCGGTCTCCC
DNA 2: TGGTGGCTACGACGGGATT
B15: UUAUCUA (DNA:RNA)
RNA: B1 RNA with A25U, A26U, G27A, U29C, G31A
DNA 1: CAATCTGAATTCCGGTCTCCC
DNA 2: TGGTGGCTACGACGGGATT
B16: UUGUAGC (DNA:RNA)
RNA: B1 RNA with A25U, A26U, U29A, U30G, G31C
DNA 1: CAATCTGAATTCCGGTCTCCC
DNA 2: TGGTGGCTACGACGGGATT
B17: CAUCGCC (DNA:RNA)
RNA: B12 RNA with G26A, C29G, A30C, U31C
DNA 1: CAATCTGAATTCCGGTCTCCC
DNA 2: TGGTGGCTACGACGGGATT
B18: AUGCCAG (DNA:RNA)
RNA: B1 RNA with A26U, U28C, U29C, U30A
DNA 1: CAATCTGAATTCCGGTCTCCC
DNA 2: TGGTGGCTACGACGGGATT
B19: GAGGUGC (DNA:RNA)
RNA: B1 RNA with A25G, U28G, U30G, G31C
DNA 1: CAATCTGAATTCCGGTCTCCC
DNA 2: TGGTGGCTACGACGGGATT
B20: GGAGUUA (DNA:RNA)
RNA: B1 RNA with A25G, A26G, G27A, U28G, G31A
DNA 1: CAATCTGAATTCCGGTCTCCC
DNA 2: TGGTGGCTACGACGGGATT

Changes are numbered by the printed parent chain; changes in the protein carry UniProt numbers. This is one part of the list.

This assay has as its target T1, RBFOX1 RRM. Put plainly: EMSA; HiTS-Eq, 1 nM pool, 10 min; buffer printed only for the single-RNA assays: 10 mM Tris pH 7.5, 150 mM NaCl, 3.4 mM EDTA, 0.001% NP-40, 30 C. Conditions: tags: His6 N-terminal (pET28a); label: 5' 32P. The method in brief:
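These values rest on relative association constants, computed from read-count changes of each RNA species versus the control reaction and normalised to the cognate motif. Reads came from free RNA recovered by 8% native PAGE after purified RbFox RRM (wild type or mutant) at increasing concentrations was equilibrated for 10 min in 50 µL with 1 nM of a 5′-radiolabelled pool with 7 randomized nucleotides and DNA-annealed flanks.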
(Mobility shift assays separate free from complexed probe on a gel.)
Regarding B1, the binding signal was 0.0158 KA relative to UGCAUGU.

For the molecule B2, the binding signal is 0.00199 KA relative to UGCAUGU.

For B3, the binding signal is 0.00253 KA relative to UGCAUGU.

Regarding B4, the binding signal was 0.00439 KA relative to UGCAUGU.

For the molecule B5, the binding signal was 0.00796 KA relative to UGCAUGU.

As to B6, the binding signal is 0.0228 KA relative to UGCAUGU.

For B7, the binding signal is 0.00106 KA relative to UGCAUGU.

Take B8: the binding signal is 0.00197 KA relative to UGCAUGU.

B9: the binding signal is 0.0176 KA relative to UGCAUGU.

B10: the binding signal was 0.00799 KA relative to UGCAUGU.

Take B11: the binding signal is 0.00244 KA relative to UGCAUGU.

With B12, the binding signal was 0.00234 KA relative to UGCAUGU.

As to B13, the binding signal was 0.0123 KA relative to UGCAUGU.

For the molecule B14, the binding signal was 0.00668 KA relative to UGCAUGU.

On to B15, for which the binding signal is 0.00293 KA relative to UGCAUGU.

With B16, the binding signal was 0.0171 KA relative to UGCAUGU.

On to B17, for which the binding signal is 0.0124 KA relative to UGCAUGU.

On to B18, for which the binding signal was 0.00872 KA relative to UGCAUGU.

With B19, the binding signal was 0.023 KA relative to UGCAUGU.

As for B20, the binding signal is 0.0106 KA relative to UGCAUGU.

The record behind these values is publication PMC9911399, “Two distinct binding modes provide the RNA-binding protein RbFox with extraordinary sequence specificity”.
